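Values below derive from 48-hour exposures of cells grown in 96-well plates, with endpoints linearly interpolated between the two concentrations bracketing the appropriate inhibition level. GI50 = concentration required for 50% inhibition of growth.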 The source made the active and inactive calls. Rule as the data show it: active = GI50 up to about 1.1 µM and inactive = higher.

The test system of the assay is NCI-H322M. The experiment in a line: growth of human tumour cells (NCI), 48 h.
`CC1C2(C)OCC(C#N)(C(=N)O2)C1(C#N)C#N` (configuration not stated): the GI50 was inactive: > 100 µM.

Consider `CC1=C(C(=O)Nc2ccc([N+](=O)[O-])cc2)C(c2ccc(N(C)C)cc2)C(C(=O)Nc2ccc([N+](=O)[O-])cc2)=C(C)N1`, for which the GI50 is inactive: 20.7 µM.

Regarding `CC1=NN(c2ccccc2)C(=O)C1/N=N/c1ccc(S(N)(=O)=O)cc1` (configuration not stated), the GI50 was inactive: > 100 µM. As for `Cc1[nH]c(C)c(CN(C)C)c1CN(C)C`, the GI50 is inactive: > 100 µM. As for `COc1ccc(C(=O)CC(c2ccc(OC)c(OC)c2)c2c(O)oc3ccccc3c2=O)cc1OC` (configuration not stated), the figure is inactive: > 100 µM; as for `CC(C)=CCOC(=O)C(C)=[N+]=[N-]`, inactive: > 100 µM; as for `CCNC(=O)C(C)C1CCC2(C)C=CC(=O)C(C)=C2C1O` (configuration not stated), inactive: > 100 µM. For `CCOC(=O)C(O)(NC(C)=O)C(F)(F)F` (configuration not stated) the value was inactive: > 100 µM; for `Clc1ccc(Cl)c(/N=N\c2cc3c4c(c2)CCN4CCC3)c1`, inactive: > 10 µM. `Brc1ccc(-c2[nH]c3ccccc3c2/N=N\c2ccccc2)cc1`: the GI50 was inactive: 17.8 µM. As for `CC(=O)Nc1ccc(C(=O)NN2C(=O)C(Cl)C2c2ccccc2O)cc1` (configuration not stated), the figure is inactive: 26 µM; as for `COc1cc([C@H]2CC(=O)C[C@H](c3cc(OC)c(OC)c(OC)c3)C23C(=O)c2ccccc2C3=O)cc(OC)c1OC`, inactive: > 100 µM; as for `COC(=O)CCC1CCc2c(OC)ccc(OC)c2C1=O` (configuration not stated), inactive: > 100 µM. As for `CCOC(=O)C(NC(=O)Nc1ccc(C)cc1)(OCC)C(F)(F)F` (configuration not stated), the figure is inactive: > 100 µM; as for `C=CCOc1cc(NC(=S)c2ccoc2C)ccc1OC`, inactive: > 100 µM. On to `C/C=C/C#CC#C/C=C/C=C/C(O)CCO` (configuration not stated), for which the GI50 is inactive: > 23.1 µM. For `Cc1ccc(OC2CC(n3cnc4ncnc(Cl)c43)OC2Oc2ccc(C)cc2)cc1` (configuration not stated) the value was inactive: 17.9 µM; for `O=C(O)c1cc2ccc(Cl)cc2c(O)c1C1=CCCCC1`, inactive: 28.2 µM. Take `CC(C)(CN1CCCCC1)C(/C=C/c1ccc(Cl)cc1)=N\NC(=O)N/N=C(/C=C/c1ccc(Cl)cc1)C(C)(C)CN1CCCCC1`: the GI50 was inactive: 12.4 µM.

Regarding `NNC(=S)N/N=C(\c1nc2ccc(Cl)cc2nc1O)C(O)c1cccc([N+](=O)[O-])c1` (configuration not stated), the GI50 was inactive: > 100 µM. As for `O=c1cc(N2CCOCC2)[nH]c(=O)n1-c1ccc(F)cc1`, the figure is inactive: > 100 µM. With `COCO[C@@H]1C[C@H]2C(=O)Nc3ccccc3C(=O)N2C1`, the GI50 is inactive: > 100 µM. For `N#CCCC1(CCC#N)CCCCCCC(CCC#N)(CCC#N)C(=O)C1=O` the value was inactive: > 100 µM; for `O=C(c1ccc(Cl)cc1)N(Cc1cccnc1)C(=S)N(Cc1cccnc1)C(=O)c1ccc(Cl)cc1`, inactive: 30.6 µM; for `CC1(C)N=c2c(ncn2CCCO)=C(C(N)=O)N1`, inactive: > 100 µM. For `COc1cc(OC)c2ssc3c(OC)cc(OC)c4ssc1c2-c43`, the GI50 was inactive: > 100 µM.

On to `CC[C@]1(Cc2ccc(OC)c(OC)c2)C=[N+]([O-])O[C@H](OC2CCCC2(c2ccccc2)c2ccccc2)[C@@H]1OC(C)=O` (some centres not stated), for which the GI50 is active: 0.403 µM. For `O=C(c1ccccc1)c1ccc(COc2ccc(C(c3c(O)c4ccccc4oc3=O)c3c(O)c4ccccc4oc3=O)cc2)cc1` the value was inactive: 17.7 µM; for `N#C/C(=C\c1ccc(CP(=O)(O)O)cc1)C(N)=O`, inactive: > 100 µM; for `Cc1cccc2c(=O)c3c(O)cc4c(c3n(C)c12)C=CC(C)(C)O4`, inactive: > 100 µM. As for `O=C(CCc1cc(-c2ccccc2)nc(S)n1)N(Cc1ccccc1)Cc1ccccc1`, the figure is inactive: > 100 µM; as for `CSC1CC2C(CC1(C)O)C2(C)C` (configuration not stated), inactive: > 100 µM.

For the compound `C[S+]([O-])c1cc(=O)c2ccccc2s1` (configuration not stated), the GI50 was inactive: 20.7 µM. Take `CC(=O)NC1C(OC(C)C(=O)NC(C)C(=O)NC(CCC(=O)NCCCCCNc2ccc([N+](=O)[O-])c3[nH]c4ccccc4c(=O)c23)C(N)=O)C(O)C(CO)OC1(C)OCc1ccccc1` (configuration not stated): the GI50 was inactive: > 100 µM. As for `CC(C)(C)c1cc(C(=O)/C=C/c2cc[nH]n2)cc(C(C)(C)C)c1O`, the figure is inactive: 17 µM; as for `COc1cc(/C=C2/C[C@H]3[C@@H]4CC=C5C[C@@H](OC(C)=O)CC[C@]5(C)[C@H]4CC[C@]3(C)NC2=O)cc(OC)c1OC`, inactive: 27.4 µM.

On to `CC#CCCN(CC#N)Cc1ccccc1`, for which the GI50 was inactive: > 100 µM. For `O=[N+]([O-])c1cccc2nc3ccccc3c(NCCCN3CCOCC3)c12` the value was active: < 0.0151 µM; for `Nc1nnc(NC(=O)C2=NS(=O)(=O)c3cc(S(N)(=O)=O)c(Cl)cc3N2)[nH]1`, inactive: > 100 µM; for `Cc1cc2c3ccccc3n(C)c2c2c1C(=O)c1ccccc1C2=O`, inactive: 15.2 µM. As for `Nc1nc(Cl)cc(NCC2(CO)COC2)n1`, the figure is inactive: > 100 µM.

Regarding `COc1c(C)c(C/C=C(\C)CCCCO)c(OC)c(OC)c1OC`, the GI50 is inactive: > 100 µM.

With `CN(C)CCCNC1=C(Cl)C(=O)c2c(O)ccc(O)c2C1=O`, the GI50 was inactive: 1.7 µM. For `O=C(NCCCNCCCCNCCCNC(=O)C(F)(F)F)C(F)(F)F` the value was inactive: > 100 µM; for `[Zn+2][N+]12CCN3CCN4CCN(CC1)[PH]432` (configuration not stated), inactive: > 100 µM; for `CC(=O)CC1(O)C(=O)c2c(Br)sc(Br)c2C1=O`, inactive: > 100 µM. For `COC(=O)/C(C#N)=C1\NN=NN1c1ccc(OC)cc1`, the GI50 is inactive: > 100 µM. As for `CN1C(=O)c2ccccc2NC(=O)C12O[C@@H]2c1ccccc1` (some centres not stated), the figure is inactive: > 100 µM; as for `Cc1cc(NN)nc2[nH]nc(N)c12`, inactive: > 100 µM. As for `CCOC(=O)c1nc2cc(N3CCOCC3)c(F)cc2[nH]c1=O`, the figure is inactive: > 100 µM; as for `COc1ccc(-c2c(C#N)c(O)n(NS(=O)(=O)c3ccc(C)cc3)c(=O)c2C#N)cc1`, inactive: > 100 µM. For `Clc1cc2c(cc1Cl)CC(NCCN1CCCC1)CC2` (configuration not stated) the value was inactive: 15.3 µM. Regarding `COC(=O)C(C)(C)NC(=O)C(Cc1ccccc1)Nc1ncnc2c1ncn2-c1ccc(OC)cc1` (configuration not stated), the GI50 is inactive: 45.1 µM.

Regarding `O=C(/C=C\c1cccc2ccccc12)c1ccc(Br)cc1`, the GI50 was inactive: 47.6 µM. With `COc1ccc(C(O)c2nccn2C)c(OC)c1` (configuration not stated), the GI50 was inactive: > 100 µM. For `O=C(Nc1ccc(Sc2ccc(/N=N/c3c(O)c(S(=O)(=O)O)cc4cc(S(=O)(=O)O)ccc34)cc2)cc1)c1ccc(/N=N/c2c(O)ccc3c(S(=O)(=O)O)cc(S(=O)(=O)O)cc23)cc1` the value was inactive: 29.7 µM; for `COc1ccc(NC(=O)CC(=O)n2nc(-c3ccccc3)c(/N=N/c3ccc(C)cc3)c2-c2ccccc2)cc1`, inactive: 45.2 µM; for `O=C(Nc1ccccc1[N+](=O)[O-])C(=O)C(C(=O)c1ccccc1-c1ccccc1)C1OC(=O)c2ccccc21` (configuration not stated), inactive: 13.7 µM. On to `Cn1nc(-c2ccccc2NC(=O)C(F)(F)F)c(=O)n(C)c1=S`, for which the GI50 is inactive: > 100 µM. As for `S=C(Nc1ccccc1)N(Cc1ccccc1)c1ccccc1`, the figure is inactive: 25 µM; as for `O=C(O)COc1c(Cl)cc(Cl)c(C(c2c(Cl)cc(Cl)c(OCC(=O)O)c2Cl)C(Cl)(Cl)Cl)c1Cl`, inactive: 22.6 µM. As for `CCCCCCCCCCCCC(CC)CCCCC(=O)O` (configuration not stated), the figure is inactive: > 100 µM; as for `COC(=O)C1(C)CC2C(C)(CCC3(C)C4=CC=C5C(=CC(=O)C(O)=C5C)C4(C)CCC23C)CC1O` (configuration not stated), inactive: 2.61 µM. `CC1CC(C)[C@H](O)C([C@H](O)CC2CC(=O)N(C)C(=O)C2)C1` (some centres not stated): the GI50 was inactive: > 100 µM. In the case of `O=S(=O)(O)c1ccc(/N=N/c2ccc(/N=N/c3c(O)ccc4ccccc34)cc2)cc1`, the GI50 is inactive: > 100 µM.

Take `CC(C)C[C@H](NC(=O)[C@H](CCc1ccccc1)NC(=O)c1ccc2ccccc2n1)B(O)O`: the GI50 was inactive: 1.99 µM. As to `c1ccc(CC(Nc2cccnc2)c2ccccc2)cc1` (configuration not stated), the GI50 is inactive: 25.9 µM. With `O=C(CC(=O)Nc1ccc(Cl)cc1)NNCC(=O)Nc1nc(-c2ccccc2)cs1`, the GI50 is inactive: > 100 µM.

`COc1ccc(N(C)Sc2ccccc2)cc1`: the GI50 was inactive: > 100 µM. As for `Cn1cc2ccccc2c1-c1nc(F)nc(F)n1`, the figure is inactive: > 100 µM; as for `COc1ccc(C2S/C(=C\c3ccccc3O)C(=O)N2NC(=O)Cc2ccccc2)cc1` (configuration not stated), inactive: > 100 µM.

In the case of `C=C1C(=O)OC2/C=C(\C(=O)O)CC/C=C(\C)CC(OC(=O)/C=C(\C)CC)C12` (configuration not stated), the GI50 is inactive: 16.8 µM.

`Cc1ccc2c(c1)C(=O)/C(=C\c1ccc(Cl)cc1)CCS2(=O)=O`: the GI50 was inactive: 4.99 µM. Regarding `FC(F)=C(c1ccc(-c2ccc(Cl)cc2)cc1)C(F)(F)F`, the GI50 was inactive: 17.9 µM.

For `Cc1ccc(C)n1-c1ccccc1C1C=Cn2c3c1c(=O)c(OC(C)C)c(OC(C)C)c-3n[nH]c2=O` (configuration not stated), the GI50 is inactive: 44.9 µM. Take `Cc1cc(=O)oc2c3c(ccc12)OC(c1ccc(Br)cc1)CC3=O` (configuration not stated): the GI50 was inactive: 17.1 µM. On to `CC(C)(C)C1=CC(=C(P(=O)(O)O)P(=O)(O)O)C=C(C(C)(C)C)C1=O`, for which the GI50 is inactive: > 50 µM. For `CC[C@H]1CNC(=O)CC1CC(=O)OC` (some centres not stated) the value was inactive: > 100 µM. In the case of `Cc1nn(C)c(=S)n(C)c1=O`, the GI50 is inactive: 43.7 µM. For `CCOC(=O)C(=CNC(=S)N/N=C1\C(=O)Nc2ccccc21)C(=O)OCC` the value was inactive: > 100 µM. On to `Nc1nc(SCc2ccccc2[N+](=O)[O-])c2[nH]cnc2n1`, for which the GI50 is inactive: > 70.5 µM.

Turning to `O=c1c(Cc2cccc(Cc3c(O)oc4ccccc4c3=O)c2)c(O)oc2ccccc12`, the GI50 was inactive: > 100 µM.

The record behind these values is ChEMBL document CHEMBL1201862, “PubChem BioAssay data set” (2004).
